Legend:
GFP-C1QTNF4 (aa 17–329) = GFP-C1QTNF4 (aa 17–329) (human, UniProt Q9BXJ3 17-329); experiment: flow cytometry on cells
[1] = biological target: GFP-C1QTNF4 domain 2 (GFP-d2, aa 168–329) (human, UniProt Q9BXJ3 168-329); experiment: co-IP

Chain of GFP-C1QTNF4 (aa 17–329) (Q9BXJ3 17-329): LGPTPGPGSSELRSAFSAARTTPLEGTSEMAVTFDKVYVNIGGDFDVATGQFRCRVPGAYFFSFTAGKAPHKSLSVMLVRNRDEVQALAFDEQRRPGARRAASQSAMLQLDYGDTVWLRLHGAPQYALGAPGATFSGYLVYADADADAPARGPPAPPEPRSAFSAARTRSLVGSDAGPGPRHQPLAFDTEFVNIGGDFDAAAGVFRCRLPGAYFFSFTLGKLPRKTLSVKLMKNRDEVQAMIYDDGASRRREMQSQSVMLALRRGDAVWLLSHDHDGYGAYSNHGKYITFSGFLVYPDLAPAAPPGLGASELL

binding result (GFP-C1QTNF4 (aa 17–329)): binds
binding result [1]: binds
B1: Nucleolin construct R4G ([…]) (domain or fragment)
chain: not shown

— paper PMC8042453 (The Journal of Biological Chemistry, 2021)
